# Assay results reported in PMC5540273 (PLoS ONE, 2017).
# For some assays here: The strong results were mostly taken out for another list; the other results follow. This is a selection; strong and weak results do not stand in their true shares.
# What was measured:
# Conditions in all cases: concentration: 1 μM,replicates: in singlicate; n = 1
# [1] = tested on: CAMK1D
# [2] = tested on: CAMK1G
# [3] = tested on: CAMK1
# [4] = tested on: CAMK2A
# [5] = tested on: CAMK2B
# [6] = tested on: CAMK2D
# [7] = tested on: CAMK2G
# [8] = tested on: CAMK4
# [9] = tested on: CAMKK1
# [10] = tested on: CAMKK2
# [11] = tested on: CASK
# [12] = tested on: T1, CDC2L1
# T1 construct: gene CDK11B
# [13] = tested on: CDC2L2
# [14] = tested on: T2, CDC2L5
# T2 construct: gene CDK13
# [15] = tested on: T3, CDK11
# T3 construct: gene CDK19
# [16] = tested on: CDK2
# [17] = tested on: CDK3
# [18] = tested on: CDK4-cyclinD1
# [19] = tested on: CDK4-cyclinD3
# [20] = tested on: CDK4
# 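Further: KINOMEscan kinase panel screen.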
SMILES,%Inh [1],%Inh [2],%Inh [3],%Inh [4],%Inh [5],%Inh [6],%Inh [7],%Inh [8],%Inh [9],%Inh [10],%Inh [11],%Inh [12],%Inh [13],%Inh [14],%Inh [15],%Inh [16],%Inh [17],%Inh [18],%Inh [19],%Inh [20]
O=C1NC(=O)C(c2ccccc2Cl)=C1Nc1ccccc1 [SB-376715],12%,5%,0%,13%,0%,27%,4%,7%,29%,15%,16%,0%,1%,10%,24%,0%,68%,35%,30%,0%
O=C1NC(=O)C(c2ccc(Cl)cc2)=C1Nc1cccc(O)c1 [SB-333613],4%,14%,2%,6%,19%,9%,25%,0%,2%,13%,14%,0%,14%,8%,0%,0%,0%,0%,6%,9%
O=C1NC(=O)C(c2ccccc2Cl)=C1Nc1cccc(C(=O)O)c1 [SB-390526],7%,0%,1%,2%,0%,0%,10%,0%,0%,1%,3%,0%,4%,0%,0%,0%,4%,16%,0%,32%
CSc1ccc(NC2=C(c3cccc(Cl)c3)C(=O)NC2=O)cc1 [SB-341528],0%,6%,15%,0%,0%,0%,6%,0%,0%,1%,0%,0%,0%,0%,0%,0%,0%,0%,0%,2%
O=C(O)c1ccc(-c2nc(-c3ccc(F)cc3)c(-c3ccncc3)[nH]2)cc1 [SB-202620],2%,29%,9%,0%,13%,5%,11%,28%,16%,1%,14%,9%,0%,0%,8%,4%,3%,0%,6%,9%
COc1ccc(C2=C(Nc3cccc(Cl)c3)C(=O)NC2=O)cc1 [SB-326892],5%,0%,0%,0%,0%,3%,0%,7%,1%,0%,16%,0%,1%,0%,0%,0%,0%,8%,0%,0%
O=C1NC(=O)C(c2ccccc2)=C1Nc1ccc(Cl)c(C(=O)O)c1 [SB-390532],0%,0%,0%,0%,0%,0%,2%,0%,0%,0%,19%,0%,0%,0%,0%,0%,4%,20%,0%,38%
O=C1NC(=O)c2c1c(-c1ccccc1)cc1[nH]c3ccc(O)cc3c21,22%,10%,6%,0%,0%,11%,7%,0%,19%,1%,6%,22%,30%,3%,0%,34%,19%,47%,39%,0%
O=C1NC(=O)C(c2ccccc2)=C1Nc1cc(Cl)c(O)c(Cl)c1 [SB-390530],0%,0%,6%,0%,0%,4%,4%,0%,0%,0%,0%,0%,7%,2%,0%,13%,34%,0%,10%,24%
COc1cccc(C2=C(Nc3ccc(SC)cc3)C(=O)NC2=O)c1 [SB-331032],26%,30%,76%,0%,6%,11%,5%,4%,25%,1%,28%,0%,0%,18%,0%,0%,0%,16%,7%,36%
Cc1cc(C)cc(Oc2nccc(-c3c(-c4ccc(F)cc4)ncn3C3CCNCC3)n2)c1.O=C(O)C(F)(F)F.O=C(O)C(F)(F)F.O=C(O)C(F)(F)F [SB-284851],0%,0%,0%,0%,0%,11%,7%,0%,27%,17%,0%,7%,18%,8%,4%,16%,0%,25%,0%,0%
Cc1ccc(C)c(Oc2nccc(-c3c(-c4ccc(F)cc4)ncn3C3CCNCC3)n2)c1.O=C(O)C(F)(F)F.O=C(O)C(F)(F)F.O=C(O)C(F)(F)F [SB-284852],18%,0%,0%,0%,7%,5%,10%,35%,99.7%,16%,0%,0%,0%,7%,0%,0%,23%,9%,0%,0%
CS(=O)(=O)c1ccccc1-c1nc(-c2ccc(F)cc2)c(-c2ccncc2)[nH]1 [SB-213663],33%,0%,29%,0%,0%,0%,0%,0%,0%,0%,0%,7%,0%,25%,4%,0%,0%,28%,0%,0%
O=C1NC(=O)C(c2ccc(Cl)cc2)=C1Nc1cccc(C(=O)O)c1 [SB-360737],7%,0%,1%,0%,0%,0%,0%,0%,0%,0%,11%,0%,0%,0%,0%,2%,0%,0%,21%,0%
O=C1NC(=O)C(c2ccc(Cl)cc2)=C1Nc1ccc(O)c(Cl)c1 [SB-405367],5%,29%,11%,8%,0%,16%,9%,0%,0%,10%,8%,1%,0%,13%,0%,0%,0%,0%,0%,0%
O=C1NC(=O)C(c2ccc(Cl)cc2)=C1Nc1ccccc1 [SB-317661],2%,0%,0%,18%,7%,0%,0%,0%,0%,0%,19%,0%,0%,7%,12%,0%,5%,13%,0%,2%
